The whole screen tested about 110,000 compounds, of which about 40 (0.04%) were called active. The shares of active, inactive and inconclusive entries below differ from those in the screen. The call rests on the fitted dose curve; in most records, active means well fitted curve in the direction sought with a large enough effect in the signal ratio (not every such curve was filed as active); inconclusive means small, poorly fitted or top-dose-only effect, or a change in a side signal; inactive means flat fitted curve, though single readings scatter; the % refers to the signal ratio. Potencies beside an inconclusive call are fits to weak or partial responses and may not hold up.
Test: IkB Signaling;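 on IkBa stabilization activation: 0% = basal untreated cells and 100% = reference inhibitor full response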
Settings: ABC-DLBCL IkBa-CBG/CBR dual luciferase ratio (green luciferase fused to IkBa over red control in OCI-Ly3 lymphoma cells), 4 h; IkBa stabilization activation: at 57.1 µM (top of the series), scaled: untreated 0%, proteasome inhibitor 100% unless noted
How it was run: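 Curves were fitted separately to fusion (green), unfused (red) and ratio luminescence, then classed by r2, magnitude and activity. Cells: OCI-Ly3, 4 h compound plus doxycycline at 37C; 10 uM MG-132 defined full response.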
Potency means the concentration at half of the fitted maximal effect.

Row | Structure (SMILES) | IkBa stabilization activation | Potency
1 | Clc1ccc(-c2nnc(SCc3ccon3)o2)c(Cl)c1 | inactive: -0.749% | 
2 | Cc1ccc(-n2nnnc2SCC(=O)NCCc2ccccc2)cc1C | inconclusive: 1.82% [signal inhibitor] | 
3 | CCCCC(=O)OC1=CN(Cc2ccccc2)S(=O)(=O)c2ccccc21 | inactive: 1.1% | 
4 | O=C(CCn1nc(-c2ccc(Cl)cc2)ccc1=O)N1CCOCC1 | inactive: 1.1% | 
5 | CSCCC(NC(=O)c1ccccc1)c1nc(-c2ccccc2)no1 (configuration not stated) | inconclusive: 4.21% [signal inhibitor] | 
6 | Cc1ccc(S(=O)(=O)NCC(=O)N(CC(=O)NCC2CCCO2)C2CCCC2)cc1 (configuration not stated) | inconclusive: 1.17% [signal activator] | 
7 | Cc1ccc(-c2cnc(-c3ccncc3)o2)cc1 | inactive: 0.0887% | 
8 | O=C(Nc1cccc(S(=O)(=O)C(F)F)c1)c1ccc(Cl)c(S(=O)(=O)N2CCOCC2)c1 | inconclusive: 18% | 
9 | COCCn1c(=O)c(-c2cccs2)nc2cnc(OC)nc21 | inactive: 1.49% [at 11.4 µM, scaled: untreated 0%, proteasome inhibitor 100%] | 
10 | COc1ccc(NC(=O)Nc2nnc(N3CCCC3)s2)cc1 | inconclusive: -0.906% [signal inhibitor] | 
11 | CN1CCN(C(=O)c2cnn(-c3ccc(F)cc3F)c2C2CCN(C(=O)OC(C)(C)C)CC2)CC1 | inactive: -0.316% | 
12 | CCOC(=O)c1[nH]c(C)c(C(=O)N2CCN(c3cccc(Cl)c3)CC2)c1C | inconclusive: 3.75% [signal inhibitor] | 
13 | Cc1ccc2c(=O)cc(C(=O)N(Cc3ccc(C(C)(C)C)cc3)C3CCS(=O)(=O)C3)oc2c1 (configuration not stated) | inconclusive: 0.573% [signal inhibitor] | 
14 | Cc1ccc(NC(=O)c2c(C)oc3ccc(O)c(CN4CCOCC4)c23)cc1 | inconclusive: 3.25% [signal inhibitor] | 
15 | CCc1cc2ccccc2nc1SCC(=O)Nc1cc(C)on1 | inactive: -1.35% | 
16 | Cc1ccc(-n2ncc(C(=O)NCc3ccc4c(c3)OCO4)c2C2CCN(C(=O)OC(C)(C)C)CC2)c(C)c1 | inconclusive: -0.665% [signal inhibitor] | 
17 | CCc1nnc(NC(=O)CSc2nnc(-c3ccccc3O)n2-c2ccc(C)cc2C)s1 | inconclusive: 0.22% [signal inhibitor] | 
18 | Cc1cc(S(=O)(=O)NC2CCCCC2)ccc1OCC(=O)NCc1ccccn1 | inactive: 1.09% | 
19 | Cc1ccccc1OCC(=O)Nc1ccc(S(=O)(=O)N(Cc2ccccc2)c2ccccc2)cc1 | inactive: -0.276% | 
20 | COC(=O)c1ccc(NC(=O)c2cc(S(=O)(=O)N3CCOCC3)cn2C)cc1 | inconclusive: 1.52% [signal inhibitor] | 
21 | COc1ccc(Cn2c(=O)c3oc4ccccc4c3n(CC(=O)Nc3c(C)cccc3C)c2=O)cc1 | inconclusive: 1.52% [signal inhibitor] | 
22 | C(=N\n1cnnc1)/c1ccc2c(c1)OCO2 | inactive: -0.866% | 
23 | Oc1cc(O)cc(/C=C\c2ccc(O)c(O)c2)c1 | inactive: 3.13% | 
24 | O=C(CSc1nc2ccccc2n1Cc1cccc(F)c1)NCc1ccccc1 | inactive: -0.232% | 

Row | Structure (SMILES) | IkBa stabilization activation | Potency
25 | CCOC(=O)c1sc2ncn(CC(=O)Nc3ccc(OC)c(Cl)c3)c(=O)c2c1C | inactive: 0.321% | 
26 | Cc1cc2n(n1)C(c1ccco1)Nc1ccccc1-2 (configuration not stated) | inactive: 0.503% | 
27 | Cc1ccccc1Cn1c2ccccc2c2cnn(CC(=O)NC3CCCCCC3)c(=O)c21 | inconclusive: 3.66% [signal inhibitor] | 
28 | COc1ccc(OC)c(C2C(C(=O)Nc3ccc(C)cc3)=C(C)Nc3nnnn32)c1 (configuration not stated) | inactive: 0.551% | 
29 | CN1CCN(C(=O)c2ccc3c(c2)N(Cc2ccc(C(F)(F)F)cc2)C(=O)c2ccccc2S3)CC1 | inconclusive: 0.526% [signal inhibitor] | 
30 | CN(CC(=O)Nc1cccc(F)c1)S(=O)(=O)c1ccc2c(c1)n(C)c(=O)c(=O)n2C | inactive: 1.31% | 
31 | CC(=O)c1cccc(NC(=O)CSc2ncc3c(n2)-c2cc(Cl)ccc2N(Cc2ccccc2)S3(=O)=O)c1 | inconclusive: 3.3% [signal inhibitor] | 
32 | Cc1cc(C)n(-c2nnc(C)c(=O)[nH]2)n1 | inactive: 1.32% | 
33 | COc1ccc(S(=O)(=O)NCc2nc(-c3ccccc3)no2)cc1 | inconclusive: -2.65% [signal inhibitor] | 
34 | O=C(CN(C(=O)CSc1nnc(COc2ccccc2)o1)c1ccc(F)cc1)NC1CCCC1 | inconclusive: 9.67% [signal inhibitor] | 
35 | Oc1ccc(-c2nc3ccc(Cl)cn3c2Nc2ccc(Cl)cc2)cc1 | inconclusive: -8.97% [signal inhibitor] | 
36 | Cc1ccccc1NC(=O)Cn1nc(-c2ccccc2)nc(Cc2ccccc2)c1=O | inconclusive: -0.389% [signal inhibitor] | 
37 | COc1ccc(CNC(=O)CSc2nnc(C)c3c(C)n(-c4ccccc4)nc23)c(OC)c1 | inconclusive: 0.317% [signal inhibitor] | 
38 | COc1ccccc1NS(=O)(=O)c1ccc(OC)c(OC)c1 |  | inconclusive: 20 µM [signal inhibitor, partial curve]
39 | Cc1c(C(=O)NCC2COc3ccccc3O2)oc2ccc(S(=O)(=O)N3CCOCC3)cc12 (configuration not stated) | inconclusive: 5.34% [signal inhibitor] | 
40 | O=C(Nc1nnc(/N=C/c2ccco2)s1)c1ccc(F)cc1 | inactive: 1.43% | 
41 | COc1cccc(C(=O)N2CCN(S(=O)(=O)Cc3ccccc3)CC2)c1 | inactive: 0.281% | 
42 | COc1ccccc1N1CCN(c2ccc(=O)n(CC(=O)NCc3ccc(F)cc3)n2)CC1 | inactive: -1.11% | 
43 | COc1cccc(CSc2nc3n(n2)C(c2ccc(C(=O)O)cc2)C(C(=O)Nc2ccccc2)=C(C)N3)c1 (configuration not stated) | inconclusive: 2.23% [signal inhibitor] | 
44 | Cc1ccc(Cn2nc(C)c(NC(=O)c3noc4c3CCCCC4)c2C)cc1 | inconclusive: 2.04% [signal inhibitor] | 
45 | CSc1ccccc1-c1nnc(NC(=O)c2ccc3c(c2)OCCO3)o1 | inconclusive: 18.1% [signal inhibitor] | 
46 | CCOc1ccc(CCNC(=O)c2c(C)oc3ncn(CC(C)C)c(=O)c23)cc1OCC | inactive: -4.48% | 
47 | CC(COc1ccccc1)N(CCCl)Cc1ccccc1 (configuration not stated) | inconclusive: -5.06% [signal inhibitor] | 
48 | Cc1ccc(-n2nc(C(=O)N3CCN(c4ccccc4F)CC3)c(=O)n(C)c2=O)cc1 | inconclusive: 0.261% [signal inhibitor] | 

Row | Structure (SMILES) | IkBa stabilization activation | Potency
49 | Nc1ncn([C@@H]2O[C@H](CO)[C@@H](O)[C@H]2O)c(=O)n1 | inconclusive: -0.123% [signal inhibitor] | 
50 | CCCCCc1ccc(-c2ccc(Br)cc2)nc1 |  | inconclusive: 39.8 µM [signal inhibitor]
51 | CCc1ccc(NC(=O)CSc2nc(C)c(C(=O)Nc3ccccc3)c(-c3ccc(OC)c(OC)c3)c2C#N)cc1 | inactive: 1.78% | 
52 | Clc1ccccc1CSc1nnc(-c2ccccn2)n1Cc1ccco1 | inconclusive: 9.87% [signal inhibitor] | 
53 | Cc1cc(Br)ccc1NC(=O)CSc1c2c(nc3ccccc13)CCC2 | inconclusive: 15% [signal inhibitor] | 
54 | COc1ncc2nc(CCc3ccccc3)c(=O)n(CCC#N)c2n1 | inactive: -0.861% [at 11.4 µM, scaled: untreated 0%, proteasome inhibitor 100%] | 
55 | CCOc1ccc(CNC(=O)CCc2c(C)nn(-c3ccc(N4CCCCC4)nn3)c2C)cc1 | inconclusive: -2.92% [signal inhibitor] | 
56 | CCCCC(CC)CNC(=O)Cc1ccc(-n2c(=O)[nH]c3ccccc3c2=O)cc1 (configuration not stated) | inconclusive: 0.892% [signal inhibitor] | 
57 | CCCCC12CN3CC(C)(CN(C1)C3c1c[nH]c3ccccc13)C2=O (configuration not stated) | inconclusive: 2.21% [signal inhibitor] | 
58 | Cc1cc(C)n(-c2ccc(C(=O)Nc3ccccn3)cc2)n1 | inconclusive: 13.7% [signal inhibitor] | 
59 | CCCn1c(CCC(=O)O)ccc1-c1cccs1 |  | inconclusive: 31.6 µM [rising, single point]
60 | COc1ccc(N2CCN(S(=O)(=O)c3ccc(-c4coc(C)n4)cc3)CC2)cc1 | inconclusive: 4.59% [signal inhibitor] | 
61 | O=C1CC(N2CCC(O)(c3ccc(Cl)cc3)CC2)C(=O)N1Cc1ccc(N2CCCC2=O)cc1 (configuration not stated) | inconclusive: 0.21% [signal inhibitor] | 
62 | COc1cc2c(cc1OC)n(CC(=O)c1cc(C)ccc1C)c(=O)n1nc(CCn3nc(C)cc3C)nc21 | inactive: -0.607% | 
63 | Cc1c(CCNC(=O)c2ccc(C(C)(C)C)cc2)sc2nc(-c3ccc(F)cc3)nn12 | inconclusive: 6.8% [signal inhibitor] | 
64 | CCc1cc2c(cc3c(=O)n(CCCC(=O)NCc4cccc(Br)c4)ncn32)s1 | inconclusive: 1.54% [signal inhibitor] | 
65 | Cc1cc(Nc2ccc(F)cc2F)nc(-n2nc(C)cc2C)n1 | inconclusive: 1.31% [signal inhibitor] | 
66 | CC1CCCN(c2nc3c(c(=O)[nH]c(=O)n3C)n2CCCc2ccccc2)C1 (configuration not stated) | inconclusive: 9.43% [signal inhibitor] | 
67 | CCCCCCCN | inactive: -1.3% | 
68 | COc1ccc2cc(CCNC(=O)c3ccc4c(c3)OCO4)c(=O)[nH]c2c1 | inconclusive: 5.33% [signal inhibitor] | 
69 | CC(=O)N1CCN(c2ccccc2NC(=O)COc2cc(C)ccc2C(C)C)CC1 | inconclusive: -3.03% [signal inhibitor] | 
70 | O=C(CSc1nc(=O)n(CCN2CCOCC2)c2c1CCC2)Nc1ccc(Cl)c(Cl)c1 | inconclusive: 2.97% [signal inhibitor] | 
71 | COCCCn1c(=N)c(C(=O)NCC2CCCO2)cc2c(=O)n3cccc(C)c3nc21 (configuration not stated) | inactive: -1.78% | 
72 | Cc1ccc2nc(SCc3nc(-c4ccc(Cl)cc4)no3)[nH]c2c1 | inconclusive: 4.25% [signal inhibitor] | 

— PubChem BioAssay AID445 (National Center for Advancing Translational Sciences (NCATS), 2006)
